This is an account of results in publication PMC4336329 (PLoS ONE, 2015).

The whole screen tested about 310,000 compounds, of which about 14,000 (4.5%) showed an effect of 50% or more. Effects have a minus sign here. This is one part of the list.
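Also: peak tail current of the secondary pulse compared with the same well before compound.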

Sequence of human ether-à-go-go-related gene (hERG) potassium channel (Q12809 whole entry, looked up): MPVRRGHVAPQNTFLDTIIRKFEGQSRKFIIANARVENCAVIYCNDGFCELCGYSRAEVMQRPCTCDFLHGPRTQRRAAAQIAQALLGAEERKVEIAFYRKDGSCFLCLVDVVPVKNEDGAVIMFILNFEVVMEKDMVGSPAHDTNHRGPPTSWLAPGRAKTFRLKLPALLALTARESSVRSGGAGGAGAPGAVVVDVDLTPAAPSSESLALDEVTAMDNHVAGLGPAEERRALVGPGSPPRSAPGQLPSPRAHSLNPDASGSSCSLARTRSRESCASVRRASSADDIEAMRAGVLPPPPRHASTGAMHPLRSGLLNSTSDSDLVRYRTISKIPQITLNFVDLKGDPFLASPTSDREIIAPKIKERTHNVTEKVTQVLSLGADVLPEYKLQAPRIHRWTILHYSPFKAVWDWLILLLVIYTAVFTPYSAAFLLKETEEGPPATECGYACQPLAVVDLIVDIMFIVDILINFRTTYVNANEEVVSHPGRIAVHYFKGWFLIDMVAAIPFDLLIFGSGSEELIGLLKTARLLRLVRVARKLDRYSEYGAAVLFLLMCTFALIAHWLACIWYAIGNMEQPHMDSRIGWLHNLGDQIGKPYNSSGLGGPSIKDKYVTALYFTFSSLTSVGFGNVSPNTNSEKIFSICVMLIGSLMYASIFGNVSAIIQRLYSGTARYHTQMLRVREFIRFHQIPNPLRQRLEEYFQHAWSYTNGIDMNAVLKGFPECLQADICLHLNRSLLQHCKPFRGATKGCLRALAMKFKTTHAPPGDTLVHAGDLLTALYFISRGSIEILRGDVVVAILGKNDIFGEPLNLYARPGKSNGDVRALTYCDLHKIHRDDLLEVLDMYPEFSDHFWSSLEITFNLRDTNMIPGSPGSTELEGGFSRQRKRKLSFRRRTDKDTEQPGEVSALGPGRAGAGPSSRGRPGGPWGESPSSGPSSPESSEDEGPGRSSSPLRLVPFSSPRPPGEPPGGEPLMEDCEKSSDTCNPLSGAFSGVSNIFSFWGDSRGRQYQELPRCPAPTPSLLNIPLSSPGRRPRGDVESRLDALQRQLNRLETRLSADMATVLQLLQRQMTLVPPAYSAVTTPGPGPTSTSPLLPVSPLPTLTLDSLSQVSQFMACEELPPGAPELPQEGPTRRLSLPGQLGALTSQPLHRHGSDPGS

This assay concerns the target human ether-à-go-go-related gene (hERG) potassium channel (human, UniProt Q12809). The assay is described as follows: primary screen, population patch clamp on CHO cells stably expressing hERG.
As for `COc1cccc(CN(C)Cc2nc(Cc3ccccc3Cl)no2)c1`, the “hERG current change (%, negative = inhibition) at 10uM” value was 17.7%.

Take `Cn1c(SCc2c(Cl)cccc2Cl)nnc1-c1ccc2nonc2c1`: the “hERG current change (%, negative = inhibition) at 10uM” value was -55.1%.

Take `O=C(CCS(=O)(=O)c1ccccc1)OCC(=O)N1CCN(S(=O)(=O)c2ccc(Cl)cc2)CC1`: the “hERG current change (%, negative = inhibition) at 10uM” value came to 4.76%.

In the case of `CC(=O)Nc1ccc2[nH]c(C)cc(=O)c2c1`, the “hERG current change (%, negative = inhibition) at 10uM” value was determined as 5.14%.

For `Cc1ccnc(N/C=C(\C#N)c2nc(-c3cccc(Br)c3)cs2)c1`, the “hERG current change (%, negative = inhibition) at 10uM” value is given as -2.02%.

As for `O=c1[nH]c(NCCO)nc2c1C1(CCCC1)Cc1ccccc1-2`, the “hERG current change (%, negative = inhibition) at 10uM” value was 5.92%.

For `CC(=O)Nc1cccc(Oc2ccc([N+](=O)[O-])cc2Cl)c1`, the “hERG current change (%, negative = inhibition) at 10uM” value was -2.84%.

Turning to `Clc1ccc(-n2nnnc2-c2ccno2)cc1`, the “hERG current change (%, negative = inhibition) at 10uM” value is on record as 2.67%.

In the case of `CCCCOc1ccc(Cl)cc1CSc1n[nH]c(C)n1`, the “hERG current change (%, negative = inhibition) at 10uM” value is on record as -2.72%.

For the molecule `Cc1ccc(S(=O)(=O)N(CC(=O)NCCSC2CCCCC2)c2ccccc2F)cc1`, the “hERG current change (%, negative = inhibition) at 10uM” value was determined as 5.8%.

For the molecule `CC1(C(=O)N/N=C/c2ccccc2)CC1(Cl)Cl` (stereo not shown), the “hERG current change (%, negative = inhibition) at 10uM” value is reported as -3.14%.

In the case of `COc1ccc(NC(=S)N2CCN(S(=O)(=O)c3ccccc3)CC2)cc1`, the “hERG current change (%, negative = inhibition) at 10uM” value is recorded as -9.13%.

Consider `Cc1ccccc1NC(=O)NC1(C(=O)NCc2ccco2)CCCCC1`, for which the “hERG current change (%, negative = inhibition) at 10uM” value is recorded as 0.00838%.

Regarding `C=CCn1c(-c2ccc(OC)cc2)nc2nc3ccccc3nc21`, the “hERG current change (%, negative = inhibition) at 10uM” value stood at 8.14%.

As to `O=C1NC(=O)N(c2ccc3c(c2)OCO3)C(=O)/C1=C\c1ccsc1`, the “hERG current change (%, negative = inhibition) at 10uM” value is on record as 14.9%.

For `Cc1ccc(C2=NN(C(=O)CSc3nc(N)cc(N)n3)C(c3ccco3)C2)cc1` (stereo not shown), the “hERG current change (%, negative = inhibition) at 10uM” value is listed as 6.66%.

With `Nn1c(Cc2cccc3ccccc23)nnc1SCC(=O)N1CC(=O)Nc2ccccc21`, the “hERG current change (%, negative = inhibition) at 10uM” value is reported as 7.01%.

In the case of `COc1cccc(NC(=O)NNS(=O)(=O)c2ccc(OC)cc2OC)c1`, the “hERG current change (%, negative = inhibition) at 10uM” value is -3%.

Turning to `Cc1ccc(S(=O)(=O)/N=C(\c2ccc(F)cc2)n2c(C)nc3ccccc32)cc1`, the “hERG current change (%, negative = inhibition) at 10uM” value is 11.9%.

Take `COC(=O)c1ccc2c(=O)n(CCCCCC(=O)NCc3ccc4c(c3)OCO4)c(=O)[nH]c2c1`: the “hERG current change (%, negative = inhibition) at 10uM” value was -31.7%.

On to `COc1ccnc2c1c(=O)n(Cc1ccc(Cl)cc1Cl)c(=O)n2C`, for which the “hERG current change (%, negative = inhibition) at 10uM” value is listed as 9.73%.

On to `CC(c1ccccc1)c1nnc(NC(=O)Nc2ccccc2)s1` (stereo not shown), for which the “hERG current change (%, negative = inhibition) at 10uM” value is 2.63%.

For the molecule `COc1ccccc1N1CCN(C(=O)c2cccc(C(=O)N3CCN(c4ccccc4OC)CC3)c2)CC1`, the “hERG current change (%, negative = inhibition) at 10uM” value is given as -3.62%.

As for `Cc1ccc(NC(=O)c2cc3c(=O)oc4ccc(C)cc4c3s2)nc1`, the “hERG current change (%, negative = inhibition) at 10uM” value is listed as 11%.

Regarding `O=[N+]([O-])c1ccc(N2CCNCC2)cc1Sc1nc2ccccc2[nH]1`, the “hERG current change (%, negative = inhibition) at 10uM” value was -27%.

On to `Cc1c(S(=O)(=O)NC2CCCCCC2)c(=O)n(C)c(=O)n1C`, for which the “hERG current change (%, negative = inhibition) at 10uM” value was -21.5%.

For `CCn1cc(C(=O)NCC2CCCO2)c2cc(OC)c(OC)cc2c1=O` (stereo not shown), the “hERG current change (%, negative = inhibition) at 10uM” value was 19.4%.

As to `Cl.Clc1cccc(CNCCCSc2ncccn2)c1Cl`, the “hERG current change (%, negative = inhibition) at 10uM” value is on record as 4.57%.

As to `COc1ccc(CC(=O)Nc2ccccc2-c2ccccc2)cc1OC`, the “hERG current change (%, negative = inhibition) at 10uM” value is given as -0.946%.

Consider `CC1CCC2(CC1)NC(=O)N(NC(=O)CSc1nnc(NC3CC3)s1)C2=O` (stereo not shown), for which the “hERG current change (%, negative = inhibition) at 10uM” value is given as 1.89%.

Consider `O=C(NCc1ccc(F)cc1)c1c2c(nc3ccccc13)CCC2`, for which the “hERG current change (%, negative = inhibition) at 10uM” value is given as -21.1%.

For the molecule `Cc1ccc(-c2nnn(CC(=O)N(Cc3cccs3)C(C(=O)NC(C)(C)C)c3ccco3)n2)o1` (stereo not shown), the “hERG current change (%, negative = inhibition) at 10uM” value worked out at 14.4%.

Consider `Cc1ccc(S(=O)(=O)N2CCOCC2)cc1NC(=O)CSc1ccccn1`, for which the “hERG current change (%, negative = inhibition) at 10uM” value was 9.86%.

`Cn1c(-c2ccccc2)c(CCO)c2ccccc21`: the “hERG current change (%, negative = inhibition) at 10uM” value was 1.64%.

Turning to `CCC(C)C(NC(=O)C1CCC(C)CC1)C(=O)NC(C(=O)OC)C(C)C` (stereo not shown), the “hERG current change (%, negative = inhibition) at 10uM” value was -0.903%.

Turning to `O=C(/C=C/c1ccccc1)NC(=S)Nc1ccc(N2CCOCC2)c(Cl)c1`, the “hERG current change (%, negative = inhibition) at 10uM” value is reported as 18.9%.

Regarding `O=C(Nc1nnc(C2CC2)s1)C1Cc2ccccc2CN1C(=O)c1ccco1` (stereo not shown), the “hERG current change (%, negative = inhibition) at 10uM” value was -5.51%.

Regarding `O=C(Nc1cccc([N+](=O)[O-])c1)c1[nH]ncc1Cl`, the “hERG current change (%, negative = inhibition) at 10uM” value was -31.2%.

For `CC(=O)N1CCc2c(sc(NC(=O)c3ccc(S(=O)(=O)N(C)C)cc3)c2C#N)C1`, the “hERG current change (%, negative = inhibition) at 10uM” value is reported as 11.1%.

With `O=C(O)c1ccc(N2CCS(=O)(=O)CC2)cc1`, the “hERG current change (%, negative = inhibition) at 10uM” value is 34.2%.

For `CCOc1ccc(S(=O)(=O)N2CCN(C(=O)C3CSC4(C)CCC(=O)N34)CC2)cc1` (stereo not shown), the “hERG current change (%, negative = inhibition) at 10uM” value is reported as -6.06%.

On to `Cn1cnc([N+](=O)[O-])c1Oc1cccc2ccccc12`, for which the “hERG current change (%, negative = inhibition) at 10uM” value was -3.5%.

Take `CCn1c(O)c(C=NCc2cccs2)c(=O)[nH]c1=O`: the “hERG current change (%, negative = inhibition) at 10uM” value is -6.15%.

As for `COc1cccc(CNn2c(-c3cccc(C)c3)nc3ccccc3c2=O)c1`, the “hERG current change (%, negative = inhibition) at 10uM” value was -9.77%.

With `CCOC(=O)N1CCN(S(=O)(=O)c2ccc3c(c2)CC(C)N3C(C)=O)CC1` (stereo not shown), the “hERG current change (%, negative = inhibition) at 10uM” value was determined as 8.43%.

As for `Cc1ccc(C)c(N(CC(N)=O)S(C)(=O)=O)c1`, the “hERG current change (%, negative = inhibition) at 10uM” value amounted to 1.35%.

With `COc1cccc2c1cc1c(=O)n(CC(=O)NCCCN3CCCCC3)nc(C)n12`, the “hERG current change (%, negative = inhibition) at 10uM” value is on record as 18.7%.

For the molecule `O=C(NC(=S)NC1CCCc2ccccc21)c1ccc(F)cc1` (stereo not shown), the “hERG current change (%, negative = inhibition) at 10uM” value worked out at 11%.

Take `O=[N+]([O-])/C=C1\CCCCCN1`: the “hERG current change (%, negative = inhibition) at 10uM” value worked out at 7.65%.

Take `O=C1CCC(=O)N1CCSC(=S)N1CCOCC1`: the “hERG current change (%, negative = inhibition) at 10uM” value was determined as 8.78%.

Regarding `O=C1c2cccnc2C(Nc2ccc(Br)cc2)N1Cc1cccs1` (stereo not shown), the “hERG current change (%, negative = inhibition) at 10uM” value is listed as 14.2%.

Turning to `O=C1CCC(C(=O)Nc2ccc([N+](=O)[O-])cc2)N1` (stereo not shown), the “hERG current change (%, negative = inhibition) at 10uM” value was -2.22%.

Consider `CCOCCCNC(=O)C(NC(=O)CNC(C)=O)c1ccc(Cl)cc1` (stereo not shown), for which the “hERG current change (%, negative = inhibition) at 10uM” value turned out to be 9.12%.

For the molecule `CC1CCN=C(N)S1.Cl` (stereo not shown), the “hERG current change (%, negative = inhibition) at 10uM” value was 4.14%.

As to `CN(CC(=O)Nc1ccc(OC(F)(F)F)cc1)S(=O)(=O)c1cnc[nH]1`, the “hERG current change (%, negative = inhibition) at 10uM” value is given as 4.06%.

As to `O=c1[nH]c2cc(Br)cnc2nc1/C=C(\O)c1ccc(F)cc1`, the “hERG current change (%, negative = inhibition) at 10uM” value was determined as 10.9%.

Regarding `Cc1ccc(OCC(=O)O/N=C(\N)c2ccccn2)cc1C`, the “hERG current change (%, negative = inhibition) at 10uM” value was -11.3%.

Take `O=C(Cn1cnc2cc([N+](=O)[O-])ccc2c1=O)Nc1ccc2c(c1)CCC2`: the “hERG current change (%, negative = inhibition) at 10uM” value came out at 14.9%.
